The results in this text go back to PMC4336329 (PLoS ONE, 2015).

The whole screen tested about 310,000 compounds, of which about 14,000 (4.5%) showed an effect of 50% or more. Effects have a minus sign here. The list shows a part of the results.
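Further: peak tail current of the secondary pulse compared with the same well before compound.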

The target of the assay is human ether-à-go-go-related gene (hERG) potassium channel (human, UniProt Q12809). The assay can be described thus: primary screen, population patch clamp on CHO cells stably expressing hERG.
Sequence of human ether-à-go-go-related gene (hERG) potassium channel (Q12809 whole entry, looked up): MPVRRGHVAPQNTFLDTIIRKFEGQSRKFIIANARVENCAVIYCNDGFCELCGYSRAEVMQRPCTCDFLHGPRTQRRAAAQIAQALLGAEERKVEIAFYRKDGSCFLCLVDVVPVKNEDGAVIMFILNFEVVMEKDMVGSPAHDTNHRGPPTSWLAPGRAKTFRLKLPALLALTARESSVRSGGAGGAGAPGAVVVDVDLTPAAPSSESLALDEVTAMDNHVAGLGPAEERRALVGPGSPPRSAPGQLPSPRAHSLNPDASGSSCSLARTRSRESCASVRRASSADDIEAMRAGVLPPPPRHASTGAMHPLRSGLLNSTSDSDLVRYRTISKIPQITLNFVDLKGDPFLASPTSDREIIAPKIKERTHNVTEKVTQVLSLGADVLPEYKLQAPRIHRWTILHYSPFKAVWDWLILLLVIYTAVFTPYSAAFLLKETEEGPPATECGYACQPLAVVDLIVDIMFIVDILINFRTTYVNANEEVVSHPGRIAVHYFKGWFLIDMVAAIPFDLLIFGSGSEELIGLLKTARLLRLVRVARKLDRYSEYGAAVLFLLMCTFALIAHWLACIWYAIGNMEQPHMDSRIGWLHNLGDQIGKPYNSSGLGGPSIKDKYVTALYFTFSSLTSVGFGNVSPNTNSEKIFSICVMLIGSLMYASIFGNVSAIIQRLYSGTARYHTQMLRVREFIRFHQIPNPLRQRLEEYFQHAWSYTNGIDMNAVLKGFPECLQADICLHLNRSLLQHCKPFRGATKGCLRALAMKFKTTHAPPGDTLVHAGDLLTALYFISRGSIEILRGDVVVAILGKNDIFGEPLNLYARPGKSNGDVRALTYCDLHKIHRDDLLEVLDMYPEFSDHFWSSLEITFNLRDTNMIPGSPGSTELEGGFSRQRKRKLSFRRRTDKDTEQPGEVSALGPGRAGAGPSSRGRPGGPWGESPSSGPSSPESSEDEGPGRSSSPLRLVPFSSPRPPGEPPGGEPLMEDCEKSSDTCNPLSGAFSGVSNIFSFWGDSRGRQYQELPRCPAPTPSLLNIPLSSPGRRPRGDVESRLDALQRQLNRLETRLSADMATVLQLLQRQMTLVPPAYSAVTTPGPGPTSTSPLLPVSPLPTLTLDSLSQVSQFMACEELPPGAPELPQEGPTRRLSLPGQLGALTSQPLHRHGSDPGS
Take `CCN(c1cccc(C)c1)S(=O)(=O)c1ccc2c(c1)NC(=O)CS2`: the “hERG current change (%, negative = inhibition) at 10uM” value is -7.28%. For the compound `Cc1ccc(C(=O)Oc2cc(C)[nH]c(=O)c2[N+](=O)[O-])cc1`, the “hERG current change (%, negative = inhibition) at 10uM” value is 12%. On to `CC1(c2ccc(OC(F)F)cc2)NC(=O)N(CC(=O)N2CCN(C(=O)c3ccco3)CC2)C1=O` (centres unmarked), for which the “hERG current change (%, negative = inhibition) at 10uM” value is recorded as -15%. For `COc1ccc(N(C(=O)c2snc(C(N)=O)c2N)C(C(=O)NCC2CCCO2)c2ccc3ncccc3c2)cc1OC` (centres unmarked), the “hERG current change (%, negative = inhibition) at 10uM” value was found to be 9.02%. With `Cc1cc([N+](=O)[O-])nn1CC(=O)NCc1nc2ccccc2[nH]1`, the “hERG current change (%, negative = inhibition) at 10uM” value amounted to 6.92%. For `O=C(NCc1ccccc1)c1ccccc1CO` the value was 0.57%; for `Cc1ccc(CN2CC(C(=O)NCC(=O)Nc3c(C)cccc3C)CC2=O)cc1` (centres unmarked), 3.92%; for `OCC[C@@H]1C[C@H](O)[C@@H](O)[C@@]2(Cc3ccccc3O2)O1`, 19.2%. As for `COc1ccccc1CCNC1CCCCCC1`, the “hERG current change (%, negative = inhibition) at 10uM” value stood at 2.84%. For `CN(C)/C=C/C(=O)c1ccc(S(=O)(=O)c2ccccc2)cc1` the value was 15.2%.

With `CCOC(=O)N1CCN(C(=O)CN(C2CCCCC2)S(=O)(=O)c2ccc(F)cc2)CC1`, the “hERG current change (%, negative = inhibition) at 10uM” value was -25.3%.

On to `Cc1ccc(CNc2nc(C)nc3sc4c(c23)CCC4)cc1`, for which the “hERG current change (%, negative = inhibition) at 10uM” value was -4.22%. Take `Cc1nc2ccccc2c2nc(N)nn12`: the “hERG current change (%, negative = inhibition) at 10uM” value is on record as 0.19%.

Turning to `O=C(Nc1cccc(C(F)(F)F)c1)c1cc2ncc(Br)cn2n1`, the “hERG current change (%, negative = inhibition) at 10uM” value came out at 4.84%. For the compound `COc1ccccc1NC(=S)NNC(=O)c1c(Cl)c(C)nn1C`, the “hERG current change (%, negative = inhibition) at 10uM” value was 32.8%. For `COc1cc(OC)c(/C=N/N2CCN(c3ccccc3OC)CC2)c(OC)c1` the value was 2.49%. For `CCOC(=O)C1=NN(c2ccccc2)C2=NC(C)=C(C(=O)OC)C(c3ccc(C)cc3)N12` (centres unmarked) the value was -5.08%. For `COC(=O)c1ccccc1-n1c(CCC(=O)O)ccc1-c1ccc(F)cc1` the value was 1.42%. On to `COc1ccc(N2CCN(C3CCCN(Cc4ccc(F)cc4)C3)CC2)cc1` (centres unmarked), for which the “hERG current change (%, negative = inhibition) at 10uM” value is on record as -32.8%.

On to `COc1ccc2nc3ccccc3nc2c1NC(=O)c1ccccc1Cl`, for which the “hERG current change (%, negative = inhibition) at 10uM” value is -5.99%.

Regarding `CCC1CCCCN1C(=O)c1ccc(OC2CCN(C(=O)COC)CC2)cc1` (centres unmarked), the “hERG current change (%, negative = inhibition) at 10uM” value came to 6.08%. For `CCN1CCCC1CNc1ccc(S(C)(=O)=O)cc1[N+](=O)[O-]` (centres unmarked) the value was -47.6%. For `O=C(COc1ccc(Cl)cc1)Nc1cccc(S(=O)(=O)NC2=NCCCCC2)c1` the value was -42.1%. For the compound `Cc1ccc(N(CC(O)CN2CCOCC2)S(=O)(=O)c2ccc([N+](=O)[O-])cc2)cc1` (centres unmarked), the “hERG current change (%, negative = inhibition) at 10uM” value is -65.2%. Turning to `Cc1cc(C(=O)CSc2ncnc3ccccc23)c(C)n1C1CC1`, the “hERG current change (%, negative = inhibition) at 10uM” value is given as 10.1%. Turning to `O=C(CCCCCN1C(=O)c2ccccc2C1=O)Nc1cccc(O)c1`, the “hERG current change (%, negative = inhibition) at 10uM” value is reported as -0.283%.

On to `NS(=O)(=O)c1ccc(CCNC(=O)C2Cc3ccccc3CN2C(=O)c2ccco2)cc1` (centres unmarked), for which the “hERG current change (%, negative = inhibition) at 10uM” value came out at 9.39%. As to `Cc1noc(-c2ccc(C(F)(F)F)cc2)c1NC(=O)Nc1ccc(Cl)cc1`, the “hERG current change (%, negative = inhibition) at 10uM” value was 22.3%. For `CNNC(=S)NC1CC2CC1C1C=CCC21` (centres unmarked) the value was -5.34%. For `CCn1ccnc1CN1CCCC(C(=O)c2ccc(SC)cc2)C1` (centres unmarked) the value was -58.3%; for `C[N+](C)(C)CC/C=C1/c2ccccc2CSc2ccccc21.[I-]`, 9.59%.

On to `CCc1cc(=O)oc2cc(OCc3nn[nH]n3)ccc12`, for which the “hERG current change (%, negative = inhibition) at 10uM” value is on record as 3.52%. Turning to `CCOC(=O)c1ccc(NC(=O)CC2S/C(=N/N=C3/NC(=O)CS3)NC2=O)cc1` (centres unmarked), the “hERG current change (%, negative = inhibition) at 10uM” value is listed as 15.1%. For `COc1cc(C(=S)N2CCCC2)ccc1OS(=O)(=O)c1ccc(NC(C)=O)cc1` the value was 11.3%; for `COC(=O)C1=NN(c2ccc(OC)cc2)C2C(=O)N(c3ccccc3OC)C(=O)C12` (centres unmarked), 10.7%; for `C=CCNC(=O)CN1C(=O)NC(C)(c2ccc(OC)cc2)C1=O` (centres unmarked), -14.2%. For `Cc1ccc(S(=O)(=O)CCC(=O)Nc2sccc2C#N)cc1` the value was -11.4%. Regarding `CCCCCCc1cc2cc(-c3nnc(-c4cc(OC)c(OC)c(OC)c4)o3)c(=O)oc2cc1O`, the “hERG current change (%, negative = inhibition) at 10uM” value is recorded as 4.47%. As for `COc1ccc(-c2c(C)nn3c(N4CCCCCC4)cc(C)nc23)cc1OC`, the “hERG current change (%, negative = inhibition) at 10uM” value is on record as 7.94%.

Consider `S=c1nc(-c2ccccc2)n(CCCN2CCOCC2)c2c1CCCC2`, for which the “hERG current change (%, negative = inhibition) at 10uM” value is listed as -13.7%. For `Clc1ccc(OCCn2cnc(Cl)c2Cl)cc1` the value was -2.74%; for `CCCCNC(=S)Nc1cccc(C(C)=O)c1`, 9.06%; for `S=C(NCCc1ccccc1)N1CCCC1`, 9.47%. Take `O=C(/C=C/c1ccccc1[N+](=O)[O-])N1CCN(c2ccc(F)cc2)CC1`: the “hERG current change (%, negative = inhibition) at 10uM” value is on record as -56.5%. For `O=C1OCCC1Sc1nnnn1-c1ccccc1` (centres unmarked) the value was -5.14%. As to `S=C(NC1CCCCC1)N1CCOCC1`, the “hERG current change (%, negative = inhibition) at 10uM” value worked out at 7.05%.

Consider `c1ccc2c(c1)ncn2Cc1nnc2sc(-c3ccncc3)nn12`, for which the “hERG current change (%, negative = inhibition) at 10uM” value was -25.4%. With `CCN(CC)S(=O)(=O)c1ccc(S(=O)(=O)N2CCCC2C(=O)O)cc1` (centres unmarked), the “hERG current change (%, negative = inhibition) at 10uM” value is -0.323%. For `O=S(=O)(NCc1ccccc1Cl)c1cnc[nH]1` the value was 21.4%; for `CC(C)[C@H](NC(=O)NCCC1=CCCCC1)C(=O)O`, 10.6%. Consider `Cn1c(=O)[nH]c(=O)c2c1nc(N1CCOCC1)n2CCN1CCOCC1`, for which the “hERG current change (%, negative = inhibition) at 10uM” value came out at 30.2%. As to `O=C(Nc1nccs1)c1cc(S(=O)(=O)N2CCOCC2)ccc1Cl`, the “hERG current change (%, negative = inhibition) at 10uM” value was -12.9%.

As to `COc1cccc(NC(=O)Nn2cnnc2)c1`, the “hERG current change (%, negative = inhibition) at 10uM” value was determined as 24.1%. For `CC(C(=O)N1CC2(C)CC1CC(C)(C)C2)N1C(=O)c2ccccc2C1=O` (centres unmarked), the “hERG current change (%, negative = inhibition) at 10uM” value is listed as -12.6%. In the case of `Cc1cc(Nc2ccc(F)cc2)n2nc(C)nc2n1`, the “hERG current change (%, negative = inhibition) at 10uM” value was -28.7%. As for `O=C1CCCC(=O)N1c1ccc(N2CCN(c3ccccc3)CC2)c([N+](=O)[O-])c1`, the “hERG current change (%, negative = inhibition) at 10uM” value is given as 14.2%. For `COc1ccccc1N1CCN(C(=O)/C=C/c2ccc3c(c2)OCO3)CC1` the value was -10.5%. For `CCN(CC)C(=O)c1c([N+](=O)[O-])c(C(C)(C)C)nn1C` the value was 17.3%; for `CCc1ccc(/C=N/NC(=O)c2ccccn2)cc1`, -5.14%; for `CC(=O)c1ccc(Oc2cc(C)nc(N3CCOCC3)n2)cc1`, -13.3%. For the compound `O=C(N1CCN(CCO)CC1)N1c2ccccc2C=Cc2ccccc21`, the “hERG current change (%, negative = inhibition) at 10uM” value was 13.7%. For `CC(C)(C)c1csc(N/N=C/c2ccc(O)cc2)n1` the value was -0.632%. For `CCCN=C1NC(=O)C(CC(=O)NCCc2ccc(OC)c(OC)c2)S1` (centres unmarked) the value was 2.82%. For `Nc1ccccc1C(=O)OCc1ccc([N+](=O)[O-])cc1` the value was 7.98%; for `COc1ccc(C(=O)NNC(=O)c2ccccn2)cc1`, 5.21%. In the case of `Cn1c(C(=O)NCC2CCCO2)cc2c(=O)[nH]c3ccccc3c21` (centres unmarked), the “hERG current change (%, negative = inhibition) at 10uM” value is recorded as 8.03%. For `Cc1ncc([N+](=O)[O-])n1CC(=O)NCc1ccccc1` the value was 16%; for `Cn1cc(C(=O)OCC(=O)Nc2ccccc2)c2ccccc21`, -8.39%; for `O=C(COc1ccc(Cl)cc1)OCC(=O)N1CCCCCC1`, 12.6%. For `Cc1c(Cl)c([N+](=O)[O-])nn1CCCC(=O)Nc1cc(Cl)ccc1Cl` the value was -12.2%; for `Cc1ccc(S(=O)(=O)N2CCOCC2)cc1C(=O)Nc1ccc(-c2cn3ccsc3n2)cc1`, -9.94%; for `O=C(CCC1CCCN(C(=O)Cc2cccc(F)c2)C1)N1CCN(c2ccccn2)CC1` (centres unmarked), -21.8%. For `COc1cc(OC)c(N2CC(C(=O)NCCC3=CCCCC3)CC2=O)cc1Cl` (centres unmarked) the value was -7.23%; for `O=C(N/N=C\c1ccc([N+](=O)[O-])o1)C1COc2ccccc2O1` (centres unmarked), -67.4%; for `O=c1nc(N2CCCC2)nc(N2CCCC2)[nH]1`, 11.2%. As to `CN1C(=O)CSC1=Nc1ccc(Br)cc1`, the “hERG current change (%, negative = inhibition) at 10uM” value is 9.52%.

Turning to `CCCCn1c(NC(=O)c2ccccc2)nc2ccccc21`, the “hERG current change (%, negative = inhibition) at 10uM” value is recorded as -4.34%. For `Cn1c(SCc2ccc(Br)cc2)nnc1-c1cccs1` the value was -38.2%; for `O=C(NC1CC1)C1=C[C@H](C2CCCCC2)C[C@H](OCc2ccc(CO)cc2)O1`, -17.2%. For `CC(C)(C)SC(=O)C[C@@H]1NS(=O)(=O)OC2CCCCC21` (some centres unmarked) the value was 2.1%; for `CCCCn1cnc2c(oc3ccccc32)c1=O`, -2.95%; for `CC(NS(=O)(=O)c1cccc(Cl)c1)C(=O)N(C)C1CCN(C)CC1` (centres unmarked), 11.4%. For `Cc1cc(C)c2c3c(sc2n1)C(=O)N(c1ccccc1C)CC(=O)N3` the value was 14.6%; for `COC(=O)CN1C2(C#N)CCCCC2CC2CCCCC21C#N` (centres unmarked), -3.35%; for `O=C(CN1CC=C(c2ccccc2)CC1)Nc1cc(Cl)ccc1Cl`, -12.8%.

`S=C(NCCc1ccccc1)Nc1ccc(Br)cn1`: the “hERG current change (%, negative = inhibition) at 10uM” value turned out to be 3.98%. For `Cc1cc(=O)[nH]c(SCC(=O)NCCc2ccccc2)n1` the value was -1.63%. For `CC(C)NC(=S)N1CCN(C/C=C/c2ccccc2)CC1` the value was -15.5%.

Consider `COc1ccc(Cn2c(=O)[nH]c3cc(C(=O)Nc4ccccc4C)ccc32)cc1`, for which the “hERG current change (%, negative = inhibition) at 10uM” value is 2.66%.

For `N#CCCn1c(SCC(=O)NCc2ccco2)nc2ccccc21`, the “hERG current change (%, negative = inhibition) at 10uM” value is given as -3.37%. For `O=C(NC(=S)Nc1cccc(Cl)c1Cl)C1CC1` the value was 15.5%. For `O=C(NNS(=O)(=O)c1ccccc1F)c1cc(-c2ccccc2)n[nH]1` the value was -4.7%.
